Laboratory results published in US20200131161A1, “NOVEL POCHONIOLIDE COMPOUND AND USE THEREOF” (THE KITASATO INSTITUTE, priority 2017, published 2020).

Experiments:
[1] = Hydroxyl radical scavenging activity test (DMPO); details: compounds dissolved in acetone at 0.5 mg/ml; FIG. 5
Description: (§1) Pochoniolides A, B, and C were evaluated in terms of hydroxyl radical (.OH) and singlet oxygen (^1O2) scavenging activity using dihydroquercetin as a positive control. Active oxygen species were measured in accordance with the method described in Yusuke Katsuda et al., 2015, PLOS ONE, doi:10.1371/journal.pone.0138394. In the case of the hydroxyl radical (.OH) scavenging activity test, compounds were dissolved in acetone at 0.5 mg/ml. In the case of the singlet oxygen (^1O2) scavenging activity test, compounds were dissolved in acetone at 0.25 mg/ml. Thus, hydroxyl radical (.OH) scavenging activity and singlet oxygen (^1O2) scavenging activity were evaluated.

[2] = Singlet oxygen scavenging activity test; details: compounds dissolved in acetone at 0.25 mg/ml; FIG. 6
Description: as §1

Compound | hydroxyl radical (.OH) scavenging activity level (rank order) [1] | singlet oxygen (1O2) scavenging activity level (rank order) [2]
O=C1c2c(O)cc(O)cc2O[C@H](c2ccc(O)c(O)c2)[C@H]1O [dihydroquercetin, reference compound] | lower in the order of pochoniolide C, pochoniolide B, pochoniolide A, and dihydroquercetin | lower in the order of pochoniolide B, pochoniolide A, pochoniolide C, and dihydroquercetin
O=C(O)CC1OC(=O)C=C1c1coc2cc(O)cc(O)c2c1=O (centres unmarked) [pochoniolide A] | lower in the order of pochoniolide C, pochoniolide B, pochoniolide A, and dihydroquercetin | lower in the order of pochoniolide B, pochoniolide A, pochoniolide C, and dihydroquercetin
O=C(O)CC1OC(=O)C=C1C1Oc2cc(O)cc(O)c2C(=O)C1O (centres unmarked) [pochoniolide C] | lower in the order of pochoniolide C, pochoniolide B, pochoniolide A, and dihydroquercetin | lower in the order of pochoniolide B, pochoniolide A, pochoniolide C, and dihydroquercetin
pochoniolide B | lower in the order of pochoniolide C, pochoniolide B, pochoniolide A, and dihydroquercetin | lower in the order of pochoniolide B, pochoniolide A, pochoniolide C, and dihydroquercetin
